The record followed here is article PMC4336329 (PLoS ONE, 2015).

In all, about 310,000 compounds went through this assay and about 14,000 (4.5%) showed an effect of 50% or more. Effects have a minus sign here. The list shows a part of the results.
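Also: peak tail current of the secondary pulse compared with the same well before compound.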

The target of this assay is human ether-à-go-go-related gene (hERG) potassium channel (human, UniProt Q12809). As to the kind of experiment: primary screen, population patch clamp on CHO cells stably expressing hERG.
human ether-à-go-go-related gene (hERG) potassium channel, sequence (Q12809 whole entry, looked up): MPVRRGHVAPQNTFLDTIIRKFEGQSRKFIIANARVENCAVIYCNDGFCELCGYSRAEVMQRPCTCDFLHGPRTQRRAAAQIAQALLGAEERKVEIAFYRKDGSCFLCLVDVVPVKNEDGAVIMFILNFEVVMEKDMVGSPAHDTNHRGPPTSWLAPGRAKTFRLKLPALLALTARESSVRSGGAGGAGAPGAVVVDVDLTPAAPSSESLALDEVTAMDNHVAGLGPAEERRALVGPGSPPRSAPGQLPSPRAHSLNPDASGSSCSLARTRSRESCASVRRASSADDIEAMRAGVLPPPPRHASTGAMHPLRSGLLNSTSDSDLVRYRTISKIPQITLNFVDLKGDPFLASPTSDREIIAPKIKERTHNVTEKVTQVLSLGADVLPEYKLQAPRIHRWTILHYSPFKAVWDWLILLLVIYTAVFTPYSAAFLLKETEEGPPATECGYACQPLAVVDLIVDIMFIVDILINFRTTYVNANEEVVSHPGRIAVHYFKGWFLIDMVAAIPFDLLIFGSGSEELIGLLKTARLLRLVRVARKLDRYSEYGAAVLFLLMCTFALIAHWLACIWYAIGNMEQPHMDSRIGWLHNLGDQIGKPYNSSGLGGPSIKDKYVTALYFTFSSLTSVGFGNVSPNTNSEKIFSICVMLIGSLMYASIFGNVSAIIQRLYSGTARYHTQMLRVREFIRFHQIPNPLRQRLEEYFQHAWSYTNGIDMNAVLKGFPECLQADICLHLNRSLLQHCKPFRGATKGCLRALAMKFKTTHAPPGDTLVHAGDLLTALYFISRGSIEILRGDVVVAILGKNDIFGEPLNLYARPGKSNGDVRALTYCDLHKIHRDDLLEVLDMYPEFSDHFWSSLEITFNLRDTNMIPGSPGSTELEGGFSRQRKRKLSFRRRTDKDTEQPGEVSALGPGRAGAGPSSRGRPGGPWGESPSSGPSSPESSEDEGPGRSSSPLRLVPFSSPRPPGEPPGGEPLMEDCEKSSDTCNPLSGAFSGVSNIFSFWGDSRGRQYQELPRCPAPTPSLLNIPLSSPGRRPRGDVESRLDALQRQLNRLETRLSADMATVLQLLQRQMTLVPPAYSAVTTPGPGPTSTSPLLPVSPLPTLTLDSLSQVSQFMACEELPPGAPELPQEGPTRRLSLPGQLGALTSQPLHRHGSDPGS
Regarding `CC(C)CCOc1ccc(NC(=O)C2OC3OC(C)(C)OC3C3OC(C)(C)OC23)cc1` (stereo not drawn), the “hERG current change (%, negative = inhibition) at 10uM” value amounted to 20.5%.
Consider `CCc1cc2c(=O)c(-c3nc4ccccc4n3C)c(CCCC(=O)O)oc2cc1OC(=O)C(C)(C)C`, for which the “hERG current change (%, negative = inhibition) at 10uM” value is on record as 16.6%.
With `Cc1ccc(S(=O)(=O)NC(=O)NCc2ccc(Cl)cc2)cc1`, the “hERG current change (%, negative = inhibition) at 10uM” value is reported as 9.31%.
In the case of `CC(C)(C)n1nc2c(c1NC(=O)c1ccc(S(=O)(=O)N3CCCC3)cc1)CS(=O)C2` (stereo not drawn) it was 9.99%; in that of `Cc1onc(-c2ccc(Cl)cc2)c1-c1ccnc(SCC(=O)Nc2cc(Cl)cc(Cl)c2)n1`, 0.804%; in that of `CC(=O)Nc1sc2c(c1C(c1cccc(Cl)c1)N1CCN(CCO)CC1)CCCC2` (stereo not drawn), -46.8%.
Regarding `COc1ccc(CCn2c(C)cc(C(=O)CSc3nnnn3-c3ccccc3)c2C)cc1OC`, the “hERG current change (%, negative = inhibition) at 10uM” value is -2.54%.
In the case of `Cc1cc2c(SCC(=O)NC3CCCC3)ncnc2s1` it was 1.04%.
On to `Cc1ccc(C(=O)N(Cc2nc3ccccc3c(=O)[nH]2)C2CCCC2)cc1`, for which the “hERG current change (%, negative = inhibition) at 10uM” value is given as 0.599%.
In the case of `CCc1ccc(Nc2ccc(S(=O)(=O)N3CCOCC3)cc2[N+](=O)[O-])cc1` it was -13%.
In the case of `COc1cc(CNCc2cccnc2)ccc1OCc1ccccc1.Cl` it was -21.8%; in that of `CCCC(=O)NCc1nc2ccccc2n1CC(=O)c1ccccc1`, -18.1%; in that of `COc1ccc(/C=N\NC(=O)C2CCCC2)cc1Br`, 5.48%.
The result for `COc1cccc(-c2c(-c3cc(OC)cc(OC)c3)n(C)c3ccc(-c4cnc(OC)nc4)cc23)c1` reads 20.1%; that for `Brc1ccc(-c2nnc3ccc(Nc4ccccc4)nn23)cc1`, 4.22%; that for `CC(C)c1ccc(Nc2ncccc2C(=O)O)cc1`, 10.3%.
On to `CC(=O)NCCCc1nc2ccccc2n1Cc1ccccc1F`, for which the “hERG current change (%, negative = inhibition) at 10uM” value was -8.31%.
With `CCOC(=O)c1cccc(NC(=O)CC2Oc3ccccc3NC2=O)c1` (stereo not drawn), the “hERG current change (%, negative = inhibition) at 10uM” value is reported as 5.27%.
The result for `COc1ccc(-c2nnsc2N2C(=O)c3ccccc3C2=O)cc1` reads 12.7%; that for `c1ccc(C2CC3CC(c4ccco4)N2O3)cc1` (stereo not drawn), 10.9%.
The result for `COc1ccc(-n2c3c(cc(C(=O)NCC(=O)c4ccccc4)c2=O)C(=O)CC(C)(C)C3)cc1` reads 1.25%; that for `COc1cccc(N2CCN(C(=S)Nc3ccccc3OC)CC2)c1`, 16.1%; that for `CCOC(=O)CSC1=C(C#N)C(c2ccccc2OC)CC(=O)N1` (stereo not drawn), -7.41%.
In the case of `O=c1[nH]nc(-c2ccc(OCc3ccc(Cl)cc3Cl)cc2)o1` it was 20.1%.
As for `CCCC(=O)Nc1ccc(-c2csc(NNC(C)=O)n2)cc1`, the “hERG current change (%, negative = inhibition) at 10uM” value is 1.93%.
In the case of `COc1ccccc1NC(=O)C(C)OC(=O)CCNS(=O)(=O)c1cccc(C(F)(F)F)c1` (stereo not drawn) it was -19.4%.
The result for `Cc1ccc(-c2cc(-c3ccccc3)cc(-c3ccccc3)[n+]2-c2ccc(C(=O)O)cc2)cc1.[O-][Cl+3]([O-])([O-])[O-]` reads 4.17%; that for `COc1ccc(CN(C(=O)c2cccs2)c2ccccc2C(=O)O)cc1`, -7.68%; that for `Cc1ccc2c(c1)c1c(n2CC(O)Cn2c(C)nc3ccccc32)/C(=N\O)CCC1` (stereo not drawn), 15.4%.
On to `Cn1c(=O)c2[nH]c(N=Nc3ccc(N)cc3N)nc2n(C)c1=O`, for which the “hERG current change (%, negative = inhibition) at 10uM” value is 28.7%.
The result for `c1ccc(CSc2cc3ccccc3[nH]2)cc1` reads 17.9%; that for `COc1cc(Nc2cc(C)nc3ncnn23)cc(OC)c1OC`, 11%.
The result for `CN1CCN(Cc2cc(=O)n3ccsc3n2)CC1` reads 5.23%; that for `CCC(=O)c1cn([C@@H](CCC(OC)OC)CC(=O)OC(C)(C)C)cc1CC`, -0.00062%.
The result for `COc1cc(OC)cc(-c2nc3nc(C)c(CCC(=O)NCc4ccco4)c(C)n3n2)c1` reads 1.44%; that for `C/C(=N\NC(=O)c1c(Cl)cnn1C)c1cccc(NC(=O)COc2ccccc2)c1`, -13.1%.
On to `COc1ccccc1N1CCN(CCCCOc2ccc(C)cc2C)CC1.O=C(O)C(=O)O`, for which the “hERG current change (%, negative = inhibition) at 10uM” value was -50.3%.
In the case of `NC(=O)CSc1oc(-c2ccco2)nc1S(=O)(=O)c1ccc(F)cc1` it was 8.47%.
In the case of `Cc1n[nH]c(C)c1N1C(=O)c2cccc3c(N4CCCCCC4)ccc(c23)C1=O` it was -21.5%.
The result for `CC(C)OCCCNC(=O)Nc1cccc2ccccc12` reads -8.38%; that for `CC(C)Cc1nc2oc3c(N4CCN(CCO)CC4)ncnc3c2c2c1CCCC2`, -20.7%.
As for `Cc1ccc(NC(=O)c2cccc(OCc3c(C)noc3C)c2)cc1`, the “hERG current change (%, negative = inhibition) at 10uM” value was -20.5%.
Consider `COc1ccc(CC(=O)N/N=C(\C)c2cccnc2)cc1OC`, for which the “hERG current change (%, negative = inhibition) at 10uM” value turned out to be 10.2%.
The result for `COc1ccc(C2=Nn3c(nnc3-c3ccncc3)SC2)cc1OC` reads -70.8%; that for `CC(C)(C)c1ccc(C(=O)Nc2ccc(Oc3cccnc3)nc2)cc1`, -61.2%.
With `COc1ccc(/C=C2\CCCC3C2=NN(C(=O)CSc2ncn[nH]2)C3c2ccc(OC)cc2)cc1` (stereo not drawn), the “hERG current change (%, negative = inhibition) at 10uM” value was -1.73%.
The result for `Cc1sc(NC(=O)CSc2nnnn2C2CCCCC2)c(C#N)c1C` reads -1.07%; that for `O=C1CC(N2CCC(n3c(=O)[nH]c4ccccc43)CC2)C(=O)N1c1ccc(F)cc1` (stereo not drawn), -7.5%; that for `Cc1ccccc1NC1(C#N)C(=O)Nc2ccccc21` (stereo not drawn), -2.3%.
`O=C(N/N=C/c1cc2c(c([N+](=O)[O-])c1)OCO2)c1ccncc1`: the “hERG current change (%, negative = inhibition) at 10uM” value is 19.8%.
With `N#Cc1c(-c2cccs2)cc(-c2cccs2)[nH]c1=O`, the “hERG current change (%, negative = inhibition) at 10uM” value is recorded as 12.9%.
The result for `Cc1ccc(C)c(NC(=S)c2nc3ccccc3s2)c1` reads 14.8%; that for `O=C(CCN1C(=O)C2CCCCC2C1=O)Nc1ccc(OC(F)F)cc1` (stereo not drawn), -18.5%; that for `COc1cccc(N2CC(C(=O)Nc3nnc(SCc4ccccn4)s3)CC2=O)c1` (stereo not drawn), 12.8%.
In the case of `CCN(CC)S(=O)(=O)c1cc(NS(=O)(=O)c2ccc(Cl)c(C(=O)O)c2)ccc1C` it was 9.4%.
Consider `CCS(=O)(=O)NCC(c1ccco1)N1CCN(c2ccccc2F)CC1` (stereo not drawn), for which the “hERG current change (%, negative = inhibition) at 10uM” value is -1.69%.
In the case of `COC(=O)C1Cc2ccccc2CN1S(=O)(=O)c1ccc(C)cc1` (stereo not drawn) it was 1.57%; in that of `Cc1ccc(S(=O)(=O)N(CCCN2CCCC2=O)Cc2cc3c(C)ccc(C)c3[nH]c2=O)cc1`, -64%.
In the case of `Cc1ccc(NC(=O)c2ccc3c(c2)C(=O)N(CC2CCCO2)C3=O)cc1C` (stereo not drawn) it was -18.1%; in that of `CCOC(=O)C(=O)Nc1ccc(Oc2ccccc2)cc1`, -28.1%.
The result for `CC(=O)Nc1cccc(NC(=O)CSc2nnc(Cc3cccn3C)n2-c2ccc(C)cc2)c1` reads -11.9%; that for `COC(=O)C(=CC(=CN(C)C)C=C(C(=O)OC)C(=O)OC)C(=O)OC`, 16.2%.
Consider `CN1CCN(C(=O)c2ccc(C(C)(C)C)cc2)CC1`, for which the “hERG current change (%, negative = inhibition) at 10uM” value is -1.02%.
In the case of `CN(c1ccccc1C(=O)NC1CC2CCC1C2)S(=O)(=O)c1ccccc1` (stereo not drawn) it was -13.1%; in that of `N#Cc1c(NC(=O)C2CCCO2)sc2c1CCCCCC2` (stereo not drawn), 1.31%.
For `O=[N+]([O-])c1ccc2cn[nH]c2c1`, the “hERG current change (%, negative = inhibition) at 10uM” value is 15.7%.
In the case of `COC(=O)CSc1nnc(-c2ccc3c(c2)OCO3)n1C` it was 23.2%.
For `COc1cc(OC)c2c(c1)OCC1CON(C)C21` (stereo not drawn), the “hERG current change (%, negative = inhibition) at 10uM” value is -5.12%.
Consider `CC(C)c1ccc(S(=O)(=O)c2cnc(=S)[nH]c2N)cc1`, for which the “hERG current change (%, negative = inhibition) at 10uM” value was 23.3%.
Consider `Cc1ccc(Cl)cc1Nc1nc(-c2sc(NC(=O)c3cccc(Cl)c3)nc2C)cs1`, for which the “hERG current change (%, negative = inhibition) at 10uM” value is given as 21.5%.
`COc1ccc(C(=O)NC(=S)NNC(=O)c2c(-c3ccccc3)noc2C)cc1OC`: the “hERG current change (%, negative = inhibition) at 10uM” value came out at 5.92%.
In the case of `CCN1CCc2nc(NC(=O)c3ccccc3)sc2C1` it was 4.94%; in that of `CC1CCN(C(=O)COC(=O)C2CCN(S(=O)(=O)c3ccc(Cl)c(C(F)(F)F)c3)CC2)CC1`, -47.7%.
In the case of `CCCc1nn(-c2ccccc2)c2c1C(c1cccs1)C(C#N)=C(N)O2` (stereo not drawn) it was -7.93%; in that of `COc1cccc(OC)c1C(=O)N1CC(C)OC(C)C1` (stereo not drawn), 16.5%.
The result for `CC(NS(=O)(=O)OCC(Cl)(Cl)Cl)c1ccccc1` (stereo not drawn) reads 9.74%.
`CCc1ccccc1NC(=O)CN(c1ccc(OC)cc1OC)S(=O)(=O)c1ccccc1[N+](=O)[O-]`: the “hERG current change (%, negative = inhibition) at 10uM” value was 11.1%.
The result for `O=C1C(Cl)=C(NC2CCCCC2)C(=O)N1c1ccc(Cl)cc1` reads -13.1%; that for `N#Cc1c2n(c3c(N)ncnc13)CCCCC2`, 1.81%; that for `COc1ccc(NC(=O)CCC2COc3ccccc3O2)c(OC)c1` (stereo not drawn), -13.5%.
The result for `C/C(CC(=O)N1CCN(C=O)CC1)=N\NC(=O)c1ccc(Cl)cc1` reads 10.3%; that for `Cc1cc2ccccn2c1C(=O)c1ccncc1`, -6.15%.
In the case of `CCCN(S(=O)(=O)c1ccccc1F)S(=O)(=O)c1ccccc1Br` it was 5.05%; in that of `Cn1c(SCC(=O)NCCNC(=O)CSc2nnc(C(F)(F)F)n2C)nnc1C(F)(F)F`, 0.297%; in that of `COc1ccc(CCNC(=S)NC(=O)c2ccc(Br)cc2)cc1OC`, 16.2%.
Consider `c1ccc(CSc2nnc(-c3cccs3)o2)cc1`, for which the “hERG current change (%, negative = inhibition) at 10uM” value is on record as -13.5%.
The result for `CSc1nnc([C@@H]2CCCN2C(=O)OC(C)(C)C)o1` reads 19.2%.
